Experimental data published in PubChem BioAssay AID602332 (National Center for Advancing Translational Sciences (NCATS), 2012).
Several values for one entry are separate records, joined by “and”; a condition that tells them apart may be missing. Equal values may be shown once. Out of some 420,000 compounds screened, about 75 (0.02%) were called active. Inconclusive means that the source gave no clear call. Such entries were picked first, then a sample of the others. The call rests on the fitted dose curve; in most records, active means well fitted activation curve with a large enough effect; inconclusive means small, poorly fitted or top-dose-only effect; inactive means no such curve, though single readings can be large or run the other way. A potency beside an inconclusive call is a rough fit, not a confirmed value.

Test: qHTS for Inducers of the Endoplasmic Reticulum Stress Response (ERSR) in Human Glioma: qHTS; further: nearly all actives have a fitted effect of over 35% in size; on activation: % of control where 0% means no effect
Conditions: U87-MG GRP78 promoter luciferase reporter, 16 h; activation: stronger effect = higher value
Outline: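 Stably transfected U87-MG glioma cells carrying a GRP78-based luciferase sensor; 16 h compound incubation. Luminescence end-point read 10 min after Bright-Glo addition at room temperature.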
Potency means the concentration at half of the fitted maximal effect; tags describe the fitted curve by direction and shape.

Compound	Potency	activation
O=C(CSc1nc2ccccc2o1)c1cc2ccccc2oc1=O	inconclusive: 10 µM [activator, partial curve, poor fit]	–
Cc1cccc(Nc2nc(-c3ccc(O)c(O)c3)cs2)n1	inconclusive: 10 µM [activator, partial curve, poor fit]	–
c1cncc(Nc2c3ccccc3nc3ccccc23)c1	inconclusive: 50.1 µM [activator, partial curve, poor fit]	–
Cc1cccc(C)c1Nc1nnc(SCC(=O)NCc2cccs2)s1	–	inactive: -3.62%
CCOC(=O)CSC1=C(C#N)C(c2ccc(OC)cc2)C2=C(CC(C)(C)CC2=O)N1 (centres undefined)	inconclusive: 44.7 µM [activator, single point]	–
OCCNc1nc(Nc2ccc(Br)cc2)nc2ccccc12	inconclusive: 10 µM [activator, partial curve, poor fit]	–
COc1ccc(C(=O)NNC(=O)c2ccc3ccccc3n2)cc1	inconclusive: 44.7 µM [activator, partial curve, poor fit]	–
Cc1cc(C)cc(N(CC(=O)Nc2ccc(C(F)(F)F)cc2)S(=O)(=O)c2c(C)[nH]c(=O)[nH]c2=O)c1	inconclusive: 44.7 µM [activator, single point] and inconclusive: 50.1 µM [activator, single point]	–
CCOc1ccc(NC(=O)NC(CC)Cn2nnc3ccccc3c2=O)cc1 (centres undefined)	inconclusive: 28.2 µM [activator, single point]	–
O=C(NCCCN1CCOCC1)c1cc(-c2ccccc2)on1	inconclusive: 11.2 µM [activator, single point]	–
COc1ccc(CNC(=O)C(C)n2nc(C)c3c(C)n(-c4ccc(C)cc4)nc3c2=O)cc1 (centres undefined)	inconclusive: 20 µM [activator, single point]	–
Cc1cccc(OC(C)C(=O)N2CCC(c3nc4ccccc4o3)CC2)c1C (centres undefined)	–	inactive: -3.09%
CCOC(=O)COc1ccc2cc(C(=O)OCC)c(=O)oc2c1	inconclusive: 28.2 µM [activator, full curve]	–
Cc1ccc2[nH]c3nc(NN)nnc3c2c1	inconclusive: 31.6 µM [activator, partial curve, poor fit]	–
CCC/C=C/c1ccc(CN2C(CC(C)C)C(=O)N(Cc3cn(CC4CCCCC4)nn3)CCS2(=O)=O)cc1 (centres undefined)	–	inactive: 6.02%
C#C[C@]1(O)CC[C@H]2[C@@H]3CCC4=Cc5oncc5CC4(C)[C@H]3CCC21C (some centres undefined)	inconclusive: 16.5 µM [activator, partial curve, poor fit]	–
Cc1ccc(C(=O)N2CCC(C(=O)c3ccc(F)cc3)CC2)cc1	–	inactive: 4.8%
COC(=O)c1c(NC(=O)CCCOc2cccc(C)c2)sc2c1CCC(C)C2 (centres undefined)	inconclusive: 22.4 µM [activator, single point]	–
O=c1[nH]cnc2ccsc12	inconclusive: 28.2 µM [activator, single point]	–
N#C/C(=C\c1ccccc1)C(=O)N(c1ccccn1)C1CCCCC1	inconclusive: 31.6 µM [activator, partial curve, poor fit]	–

Compound	Potency	activation
N#C/C(=C/c1cccc(O)c1)C(=O)NCc1ccc(Cl)cc1	inconclusive: 14.1 µM [activator, single point]	–
Cc1cc(NC(=O)c2cc(-c3ccncc3)nc3c(C)cccc23)no1	inconclusive: 14.1 µM [activator, partial curve, poor fit]	–
Cc1ccc(OCc2cc(=O)n3c4c(sc3n2)CCCC4)c(C)c1	–	inactive: -3.76%
Cc1cc2oc(=O)cc(-c3ccccc3)c2c(C)c1-c1ccc(CO)cc1	–	inactive: 2.04% and inactive: -0.355%
COC(=O)C1=C(N)OC2=C(C(=O)CC(C)(C)C2)C1c1cccs1 (centres undefined)	inconclusive: 5.01 µM [activator, single point]	–
O=C(COC(=O)c1ccc[nH]c1=O)NCCCc1ccccc1	–	inactive: 0.515%
Cc1ccc(S(=O)(=O)N(C)CC(=O)N2CCN(Cc3ccc4c(c3)OCO4)CC2)cc1	–	inactive: -2.28%
CCCOc1ccc(C(=O)NC(=S)NNC(=O)c2c(-c3ccccc3)noc2C)cc1	inconclusive: 12.6 µM [activator, full curve, poor fit]	–
COc1ccc(-c2csc(Nc3ccccc3)[n+]2CC(O)c2ccc([N+](=O)[O-])cc2)cc1 (centres undefined)	–	inactive: -7.31%
C#CCOCCOCCOCCNc1nc(N2CCN(C(=O)[C@H]([C@@H](C)CC)n3cc([C@@H](N)CO)nn3)CC2)nc(N2CCN(C(=O)[C@H](Cc3ccc(O)cc3)n3cc([C@@H](N)CC(C)C)nn3)CC2)n1	inconclusive: 28.2 µM [activator, single point]	–
O=C(CC1SC(N2CCCC2)=NC1=O)Nc1ccc(C(=O)Nc2ncccc2O)cc1 (centres undefined)	inconclusive: 12.6 µM [activator, full curve, poor fit]	–
O=[N+]([O-])c1ccc(O)c(/C=N/Nc2ncnc3c2cnn3-c2ccccc2)c1	inconclusive: 11.2 µM [activator, single point]	–
O=C(Nc1ccc(S(=O)(=O)Nc2nccs2)cc1)c1ccc(S(=O)(=O)N2CCOCC2)cc1	–	inactive: -3.01%
O=C(N/N=C/c1ccc(O)cc1)c1csc2ccccc12	inconclusive: 7.94 µM [activator, full curve, poor fit]	–
O=C(C=Cc1ccccc1Cl)c1ccccc1	inconclusive: 44.7 µM [activator, partial curve, poor fit]	–
Cc1ccc(CNC(=O)c2ccc([N+](=O)[O-])o2)cc1	inconclusive: 14.1 µM [activator, full curve, poor fit]	–
COc1nc(C)nc(Cl)c1NC1=NCCN1	inconclusive: 58.5 µM [activator, partial curve, poor fit]	–
C=CCSc1nc2ccccc2n1C(=O)/C=C/c1cc(OC)c(OC)c(OC)c1	inconclusive: 2.82 µM [activator, single point]	–
Cc1cc(Nc2ccccc2Cl)nc(-c2ccccc2O)n1	inconclusive: 63.1 µM [activator, single point]	–
